We go through 80 sequences from the supplement of paper PMC10681739.

± gives the standard deviation of the averaged measurements. Whole data set: some 4,100 sequences, median “arbitrary fluorescence units” near 780, cut for the highest 2% near 22,000. Some of the results follow.

The test concerns the target T1, ETS1 (UniProt P14921).
T1 sequence: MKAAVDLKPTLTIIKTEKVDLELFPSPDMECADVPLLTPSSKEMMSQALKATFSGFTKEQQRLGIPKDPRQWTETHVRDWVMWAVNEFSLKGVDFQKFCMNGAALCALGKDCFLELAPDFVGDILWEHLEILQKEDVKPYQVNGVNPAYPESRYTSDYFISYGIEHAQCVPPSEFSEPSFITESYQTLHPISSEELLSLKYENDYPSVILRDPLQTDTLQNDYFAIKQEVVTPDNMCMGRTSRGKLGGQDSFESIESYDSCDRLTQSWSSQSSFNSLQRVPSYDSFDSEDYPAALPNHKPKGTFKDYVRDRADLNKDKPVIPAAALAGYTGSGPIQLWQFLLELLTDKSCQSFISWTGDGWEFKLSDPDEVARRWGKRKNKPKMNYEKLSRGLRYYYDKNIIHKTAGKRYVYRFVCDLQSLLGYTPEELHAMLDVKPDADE
The test is described as follows: ETS1 binding intensity (PBM fluorescence), ETS1 alone (arbitrary fluorescence units); higher = stronger binding. The following applies: ETS1 concentration 1 nM; RUNX1 concentration 0 nM. Summed up: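 Full-length recombinant human ETS1 (1 nM, no RUNX1) was incubated, per standard PBM protocols, on double-stranded Agilent 4 × 180k arrays of 36-bp genomic probes whose RUNX1 partner site was mutated. Bound ETS1 was detected with anti-ETS1 antibody (Cell Signaling Technology 14069) and Alexa488-conjugated secondary antibody, then scanned on a GenePix 4400A. Binding level is spot fluorescence intensity, summarised over replicate spots (four printed per sequence) and not normalised.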
Take CCTGTGACCCAGAGCACCAACAGGAATCTTTGGGGT: the ETS1 binding intensity is 366.

Sequence TTCCAAACCCCAACCTGCAGCCGGAATGGGGGAGTG showed an ETS1 binding intensity of 434.

GGAGGCAGGGCCTCAACCCCGGGAAGCTGGGGTCGG registered an ETS1 binding intensity of 307.

As to CGGGCCCGACGGAAACCATGTTTATGGCTCGCAGCA, the ETS1 binding intensity came out at 846.

The sequence GGGGCGGCTTCCGGCGGCGTGACCTGACCCCAAGAG returned an ETS1 binding intensity of 14100.

Regarding AACCTCACCAGCCACGGACAGGCAGGAAGAGGGCTG, the ETS1 binding intensity stood at 589.

In turn, CTCCCACCATCCACTGCAGCCACTTCCGCCCGTCCT showed an ETS1 binding intensity of 3490.

In turn, AACTCCTGGCCGGAACGGCACAGACTGCACTCCCGC had an ETS1 binding intensity of 341.

The sequence TGTGCATGTGATTTTCGGGTACGTGATTTCCTCTTT had an ETS1 binding intensity of 521.

Consider AGGGTTACAATTTCCGTAAACCAGAGAAGCAGCAGA, for which the ETS1 binding intensity was 2910.

GCCCTGTGATTTTCTGAGGCCCCCGAGGAGGAAGTG: the ETS1 binding intensity was found to be 386.

Regarding AGAGCAACAGGATGCAAATAACTACAAGCAAGAATA, the ETS1 binding intensity was found to be 1540.

Sequence ACAGTTTAAGCACTCTAAACCCCAACTTCCTCATCT displayed an ETS1 binding intensity of 620.

In turn, GGTGTAGGTGCTGCTCCAGGCTATCGGATGCTCACC came in with an ETS1 binding intensity of 492.

For the sequence CGAGCAGGAAGAAAGCCAGGCTCCGGGGCTGGGGGC, the ETS1 binding intensity worked out at 474.

TAGGGGCTGAGGGTCCGGGCGGAAGTGGGGCAGGCG: the ETS1 binding intensity came to 2500.

Sequence GGGCCCCTCAGCCCGACCGCCTGACCGGAAGTGCAG registered an ETS1 binding intensity of 5030.

In turn, TGTGCTACCGAAGAGGCCAATCTTCAACAGGAAGTC had an ETS1 binding intensity of 793.

The sequence CGCCCTCCGGAAGAGAGGGCGGACAGCGCCCGCGCC displayed an ETS1 binding intensity of 1310 ± 34.

Regarding GAACTTCCGGGACCACGTGACGTAGAACTACAACAA, the ETS1 binding intensity was 32800.

With ATGCCAAGGGACTTCCCTCCACAAGCGCCCCCAGCT, the ETS1 binding intensity was 471.

The sequence CCAGGAGGGATGGGGAAGTTCACCAGACACTCCATG came in with an ETS1 binding intensity of 444.

With GCAGAAGGATTTCCTGTTTCAGGCAACCCCAGCGAC, the ETS1 binding intensity was 18000.

In the case of AAGCACATCTGGTGGGGCTCTTCCGTGCTGGCCACA, the ETS1 binding intensity worked out at 364.

Take CAGCATGAGGGTGCACACACCGCTTCCTTAGAGGTT: the ETS1 binding intensity came out at 757.

With GTCACAGGAAAGAAGGAGCCTCGCCTTAACGGCACC, the ETS1 binding intensity stood at 587.

Turning to TGCCCGAGGGCCGCCGCCACCGTATTTCCGCGTTTT, the ETS1 binding intensity was 397.

Sequence AGCGCCGGAAGTGTGTCTGCGTAAAACTGCAGCTCG showed an ETS1 binding intensity of 9590.

With CAACTATAACCCCAACTACGGCCAACATCCGAGTGC, the ETS1 binding intensity worked out at 473.

As to AGCGGCAGTAGAGGAAGCCTTCGCTGTCCATGGCCA, the ETS1 binding intensity was found to be 395.

Consider TCGCAGAGAATTCTTCCGGAGGCGGCCACGGACATC, for which the ETS1 binding intensity worked out at 1040.

As to GTGGCTATGGGAAGTGGGGTGCTGTTTCTGCCGGGG, the ETS1 binding intensity is 576.

ATAAAGAAAAGCACTATCCAGTAACATCCGGCTCAG showed an ETS1 binding intensity of 2580.

Sequence TCACATCCTGTAATGGTTTGCGCATATCACAGTTCT gave an ETS1 binding intensity of 19000.

Take ACGTTTCGGGGTTTCCGGGCCAGCGGATTCGGGCGC: the ETS1 binding intensity turned out to be 4020.

On to TTTACGGGCGATTCCCTCTCAGGACTTCCGGACAGG, for which the ETS1 binding intensity is 2120.

For the sequence CAGTTCCAGGAAGCAGCCCCAAGCTTGTAGCCCTGA, the ETS1 binding intensity turned out to be 1110.

GACTCCATTTCCCGTCGGCTCACGGTGGGAGCGCCG showed an ETS1 binding intensity of 7570.

Consider TAAATGTTTCCTAAAAGCTCTTTCATAAACTACAGT, for which the ETS1 binding intensity came to 626.

Take CTATTTTGGTGCCTGTTACCTACAGGAAATGAGACA: the ETS1 binding intensity worked out at 1630.

For the sequence CAGGGTGGAAACAGGAAGAGAAACCTCACTTAACCT, the ETS1 binding intensity was 1880.

Sequence GGTGTTGTCAACACTGGGACAAGTTCTTCCGGGTCT gave an ETS1 binding intensity of 474.

For CAGAGCAGAGAGGAAGTGGTGGTGGCAACAGTCCCA, the ETS1 binding intensity was 2250.

GCTGGGGCCCCCTCCCAAAACCCGGGGAAGTGGATT registered an ETS1 binding intensity of 349.

TGGCATAAATATGGGGTCACTTATCCTGCCTTCTCA displayed an ETS1 binding intensity of 389.

Sequence TCAACAGCAGTAACGACAAGTCTTTCCTGTCCCAGA showed an ETS1 binding intensity of 889.

Sequence TCTGCCGCCAGCCCATCCGCGACCGCCTCCAGATCT yielded an ETS1 binding intensity of 343.

With CCTAAGCGGCTAAGGAACTGGCTTTGACAGGAAGTG, the ETS1 binding intensity amounted to 1520.

CCTTTGGGGTAGCAGTGGCCCCGCGCGGAGGAAGTT yielded an ETS1 binding intensity of 303.

Take CAAGGTTGAGCACACACCACCCTTCCGGAGCAGCTC: the ETS1 binding intensity was 634.

GGGAGGCCCCATCCTGTGTGGCTGTGACTTTTGCCT: the ETS1 binding intensity came to 2160.

For the sequence GTCACACTGTAGTTTTACACGGAAGCTCAGGTTGCC, the ETS1 binding intensity was determined as 516.

The sequence TGAGCGCCGGAACAGCTCTCCCAGCAAGCACCTCTC came in with an ETS1 binding intensity of 372.

In the case of TTCCATTACGGGCTCCCAACAGTACCCTTCCTCCCT, the ETS1 binding intensity turned out to be 333.

Consider TGTCCACCTCTACGGAAGTGCGCCGCTGTCCGCCAG, for which the ETS1 binding intensity was found to be 951.

Sequence CAGCCCAGTGGGAAGTGGGAGGGGCGGCCAGCAAGA gave an ETS1 binding intensity of 622.

With CTCTGGCAGGAAGCTCTGAGGGCTAAACCCCAAAAA, the ETS1 binding intensity came out at 1630.

CGACCGGAACCACTCTGAGGCGCTGCCGTAGACACC displayed an ETS1 binding intensity of 1100.

CGGGCACGTCCTACGGCAGCAACGTCCGCCGCGCCG gave an ETS1 binding intensity of 540.

Sequence ATAGACGCGTGGATTTGTTTTTAAACATCCTGAGCA had an ETS1 binding intensity of 370.

Sequence ACCCAGCTGTGATTTGATCTCACACTTCCTTCACAC registered an ETS1 binding intensity of 525.

With CATAGTGGATCTACGGGTTAGAGGAAATAGGCTGCA, the ETS1 binding intensity was 506.

GAGCACATTTCCTTTTGCTTCCAGATACGACAGTGA: the ETS1 binding intensity came out at 3560.

Sequence ACCTTCGCCGGATGCTGTGGCTGAAACTACAGCATT gave an ETS1 binding intensity of 3380.

In the case of CTGTTTCCTGCCTTTGCTGTCTGTGAGCGCATCAGT, the ETS1 binding intensity is 9550.

GTACGACAGCGGGTTCCGGTGACCATGAAGGCGGCA gave an ETS1 binding intensity of 2360.

AACAGCTTAGGAAGTAAGTGTAGCTTTGCTTAAGAC registered an ETS1 binding intensity of 375.

The sequence GGTGCGGCTGTGCGCGCGGGGCCGGAAGTGTGGGGA gave an ETS1 binding intensity of 2840.

In turn, GAGACTCAAAGCTACACCTTCCCACTTCCTGCAGCC showed an ETS1 binding intensity of 1900.

With CGGCGGCCCCTGCGCCTTCAGGCTTCCTGGCCGTCA, the ETS1 binding intensity is 383.

TCCAGGCATTTCCCCCATGTTGGCTCACTGCACTAT: the ETS1 binding intensity was found to be 881.

For CTGGGGTCGGGGCGAGGGAGCTGCCGGGGAAGTGAG, the ETS1 binding intensity stood at 513.

The sequence CTCCTAGTGGGGCGCAGGGACAGGAAGCAGGGTTTA came in with an ETS1 binding intensity of 1140.

On to CGAGAACGGCGCCACTGAGGAACCGGAAACAAGCCA, for which the ETS1 binding intensity is 3230.

Sequence CAGCTGCTGTAGGTGGAGGTGGGCAGGAAGCCCTCC displayed an ETS1 binding intensity of 539.

CCAACAGCAGCGCTACTCCCGGCCGCTTCCGCCTGG registered an ETS1 binding intensity of 748.

The sequence GAGTCGTCAGCGCACACTTGGTTCCGGGCTACATTT yielded an ETS1 binding intensity of 363.

TCCGGTCTCGGGACGTCCGGCCCCGCGCACTCAGCA showed an ETS1 binding intensity of 1830.

Regarding AGTAGAGGAGGAAGTTAAATGTAGTTTTCTGGGTGG, the ETS1 binding intensity worked out at 736.

The sequence GGCCCAGGAAAGAGGCAGGGGTGCTGTTTCCCTCCG yielded an ETS1 binding intensity of 306.
